Test results taken from PubChem BioAssay AID463173 (ICCB-Longwood Screening Facility, Harvard Medical School, 2010).
In all, about 52,000 compounds went through this assay and about 1,700 (3.3%) were called active. No stated cut-off is given here; in the data, active means survival mostly below about 52% (no sharp cut-off); inactive means mostly above about 56%. This is one part of the list.

Tested on: Wild type
Assay: growth inhibition of S. aureus wild type versus tarO mutant, primary screen, teichoic acid synthesis inhibitors, RN4220, OD600 (AID 463173)
Details: S. aureus RN4220 wild type/DeltatarO growth, OD600, 18 h, active compounds read low, screened at 18.75 µg/mL (by protocol)

Row | Structure (SMILES) | survival
1 | CC(C)CNC(=O)c1ccc(CN2CCOCC2)cc1 | inactive: 101%
2 | CSc1nn(Cc2cccc(C)c2)c(N)c1S(=O)(=O)c1ccccc1 | inactive: 130%
3 | COc1ccc(CNC(=O)c2ccc(NC(=O)N3CCSc4ccccc43)cc2)cc1 | inactive: 69%
4 | COc1cc(NC(=O)C(CC(C)C)NS(=O)(=O)c2ccc3c(c2)CCN3C(C)=O)cc(OC)c1 (centres undefined) | inactive: 78%
5 | CCc1ccc(CNCc2c(C(=O)O)n(Cc3ccc(C)cc3)c3cc(C)ccc23)cc1 | inactive: 27%
6 | Cc1ccccc1Cn1c2ccccc2c2cnn(CC(=O)NC3CCC(C)CC3)c(=O)c21 (centres undefined) | inactive: 78%
7 | COc1cc2c(=O)n(CCC(=O)NCC3CCCO3)c(=O)n(CC(=O)Nc3ccc(C)cc3C)c2cc1OC (centres undefined) | inactive: 79%
8 | Cc1ccc2nc(-c3ccc(NC(=O)c4ccc(S(C)(=O)=O)cc4)cc3)sc2c1 | inactive: 63%
9 | Cc1ccc(NC(=O)CC(C)S(=O)(=O)c2ccc3c(c2)NC(=O)CO3)c(Cl)c1 (centres undefined) | inactive: 87%
10 | CC(C)c1ccc2oc(-c3ccc(NC(=O)c4cccc(Br)c4)cc3)nc2c1 | inactive: 70%
11 | O=C(Nc1ccccc1C(F)(F)F)c1ccc2oc(=O)c(S(=O)(=O)c3ccc(F)cc3)cc2c1 | inactive: 93%
12 | COc1ccc(NC(=O)c2c(NC(=O)COc3ccccc3)sc3c2CCC(C)C3)cc1 (centres undefined) | inactive: 132%
13 | O=C(NCCC1=CCCCC1)c1ccc2c(=O)n3nc(Nc4ccccc4)sc3nc2c1 | inactive: 72%
14 | Cc1cc(C)c2[nH]c(=O)c(CN(CC3CCCO3)C(=O)NC3CCCCC3)cc2c1 (centres undefined) | inactive: 112%
15 | Cc1ccc(NC(=O)CSc2nnc3[nH]c(=O)cc(-c4ccccc4)n23)cc1Cl | inactive: 73%
16 | COCCCNC(=O)c1cn(CCOC)c(=O)c2c1c1ccccc1n2C | inactive: 89%
17 | Cc1ccccc1CNC(=O)CN1C(=O)CSc2ccc(S(=O)(=O)N(C)C)cc21 | inactive: 68%
18 | COc1ccc(-c2noc(CCC(=O)Nc3ccc(C(F)(F)F)cc3)n2)cc1 | inactive: 84%
19 | CC(=O)c1ccc(N2CCN(c3ncnc4c3nc3n4CCCC3)CC2)cc1 | inactive: 83%
20 | Cc1ccc(CSc2oc(-c3cccs3)nc2S(=O)(=O)c2ccccc2)cc1 | inactive: 64%
21 | COc1ccccc1N1CCN(c2ncc3c(n2)CCN(Cc2ccccc2F)C3)CC1 | inactive: 67%
22 | COc1ccc(CCNC(=O)Cc2c(C)c3c(cc(C)c4c(C)c(C)oc43)oc2=O)cc1 | inactive: 87%
23 | Cc1c(NC(=O)c2cc(-c3cccc(O)c3)on2)c(=O)n(-c2ccccc2)n1C | inactive: 85%

Row | Structure (SMILES) | survival
24 | CCOC(=O)N1CCc2c(sc3c2c(=O)n(Cc2ccccc2)c(=O)n3Cc2ccccc2Cl)C1 | inactive: 83%
25 | Cc1ccc2ncc(C(=O)N3CCN(c4ccccc4F)CC3)c(=O)n2c1 | inactive: 91%
26 | COc1ccc(CCNC(=O)c2cnn(-c3ccc(F)cc3)c2C2CCN(C(=O)OC(C)(C)C)CC2)c(OC)c1 | inactive: 76%
27 | CCc1ccccc1NC(=O)N1CCc2c([nH]c3ccccc23)C1c1ccc(C)cc1 (centres undefined) | inactive: 86%
28 | Cc1ccc(S(=O)(=O)N(CC(=O)NCCc2ccc(Cl)cc2)c2ccccc2C)cc1 | inactive: 59%
29 | CCc1ccc(OCC(=O)N(Cc2ccc(C)o2)C2CCS(=O)(=O)C2)cc1 (centres undefined) | inactive: 116%
30 | Cc1coc2c(C)c3oc(=O)c(CC(=O)NCCc4ccc(Cl)cc4)c(C)c3cc12 | inactive: 99%
31 | Cc1ccnc(NC(=O)Cc2ccc(F)cc2)n1 | inactive: 112%
32 | Cc1cc(NC(=O)OC2CCCC2)ccc1NC(=O)OC1CCCCC1 | inactive: 126%
33 | Cc1c(NC(=O)c2cc(=O)c3ccccc3o2)c(=O)n(-c2ccccc2)n1C | inactive: 84%
34 | O=C(COc1ccccc1F)Nc1nnc(SCc2cc(=O)c3ccccc3[nH]2)s1 | inactive: 71%
35 | Cc1cccc(CSc2nc(-c3cccs3)ccc2C#N)c1 | inactive: 17%
36 | COc1ccc(NC(=O)C2CCCN(S(=O)(=O)c3ccc4c(c3)oc(=O)n4C)C2)c(OC)c1 (centres undefined) | inactive: 125%
37 | C=CCc1c(C)nc2nc(SCC(=O)Nc3ccc(C)c(C)c3)nn2c1C | inactive: 78%
38 | COc1cccc(N2CCN(C(=O)c3cccn3-c3nnc(N4CCCC4)s3)CC2)c1 | inactive: 90%
39 | O=C1CCCC/C1=N\Nc1ccc(N2CCCCC2)cc1 | inactive: 109%
40 | COCCCNC(=O)c1ccc(-n2c(-c3ccccc3)cc3c2CCC(C)C3)cc1 (centres undefined) | inactive: 116%
41 | CCCCOc1ccc(S(=O)(=O)Nc2ccc(-c3ccc(N4CCC(C)CC4)nn3)cc2)cc1 | inactive: 75%
42 | COc1ccc(S(=O)(=O)Nc2ccc(-c3cn4ccsc4n3)cc2)cc1C | inactive: 133%
43 | COc1ccc(CCN2C(=O)c3oc4cc(C)cc(C)c4c(=O)c3C2c2ccccc2F)cc1OC (centres undefined) | inactive: 88%
44 | COc1cccc(-c2nnc(SCC(=O)NC3CCCCC3)o2)c1 | inactive: 73%
45 | Cc1cccc(NC2CC(=O)N(c3cccc(Cl)c3)C2=O)c1 (centres undefined) | inactive: 107%
46 | CCCn1c(=O)c2sccc2n2c(CCCC(=O)Nc3ccc(Oc4ccc(Cl)cc4)cc3)nnc12 | inactive: 66%

Row | Structure (SMILES) | survival
47 | Cc1ccc(NC(=O)c2ccc(CN3C(=O)CCn4nc(C)cc43)cc2)c(Cl)c1 | inactive: 85%
48 | CC(=O)c1ccc(NS(=O)(=O)c2ccc(-c3cc(C)no3)s2)cc1 | inactive: 124%
49 | CCOc1ccc(CCNC(=O)C2CCN(C(=O)c3cc4sccc4n3CC)CC2)cc1OCC | inactive: 103%
50 | Cc1cccc(NC(=O)Cn2c(=O)ccc3cc(S(=O)(=O)N4CCCC4)ccc32)c1C | inactive: 79%
51 | CC(=O)c1ccc(NC(=O)C2CCC(CNS(=O)(=O)c3cccs3)CC2)cc1 (centres undefined) | inactive: 60%
52 | COc1cccc(Cc2nc3ccccc3nc2SCC(=O)NCc2ccc(C)cc2)c1 | inactive: 88%
53 | COc1ccc(CCNC(=O)c2ccc3c(c2)nc2n3CCC(C)C2)cc1OC (centres undefined) | inactive: 72%
54 | CCOC(=O)c1noc2nc(C)n(Cc3cccc(C#N)c3)c(=O)c12 | inactive: 76%
55 | CCOc1ccc(NC(=O)N2CCN(Cc3cc(=O)n4nc(-c5ccc(OC)cc5)sc4n3)CC2)cc1 | inactive: 72%
56 | O=C(NCc1ccc(F)cc1)c1ccc2c(c1)nnn2C1CCCC1 | inactive: 159%
57 | COc1ccc(N2C(=O)CS(=O)(=O)C23C(=O)N(Cc2ccc(C)cc2)c2ccccc23)cc1Cl (centres undefined) | inactive: 69%
58 | CCOC(=O)c1[nH]c(C)c(CCC(=O)NCc2ccc(OC)cc2)c1C | inactive: 71%
59 | Cc1c(NC(=O)c2cc(-c3ccc(Cl)cc3)on2)c(=O)n(-c2ccccc2)n1C | inactive: 135%
60 | O=C(OCC(=O)N1CCc2ccccc21)c1ccccc1 | inactive: 98%
61 | Cc1ccccc1-c1nnc(SCC(=O)N(C)C2CCCCC2)o1 | inactive: 65%
62 | CCNC(=O)c1ccc(CSc2nc3ccncc3n2Cc2ccc(F)cc2)cc1 | inactive: 82%
63 | O=C(CN1C(=O)CSC1=O)Nc1cccc(Cl)c1 | inactive: 107%
64 | CCn1c(C(=O)NCc2cc(Br)ccc2OC)cc2oc3ccccc3c21 | inactive: 78%
65 | CCN(C(=O)Cn1cnc2onc(-c3ccc(F)cc3)c2c1=O)c1cc(C)ccc1C | inactive: 73%
66 | COc1cccc(C(=O)NC(=S)NCc2ccco2)c1 | inactive: 108%
67 | Cc1ccc(NC(=O)N2CCN(c3cc(-c4noc(C)n4)ccc3C)CC2)c(C)c1 | inactive: 72%
68 | Cc1cccc(CCNC(=O)CN(c2ccc(C(C)C)cc2)S(=O)(=O)c2c(C)nn(C)c2C)c1 | inactive: 87%
69 | CC1=CC(C)(C)N(C(=O)Cc2ccccc2)c2ccccc21 | inactive: 126%

Row | Structure (SMILES) | survival
70 | COc1ccc(CNc2nc3ccccc3c3nc(-c4ccccc4)nn23)cc1 | inactive: 33%
71 | Cc1ccc(OCC(=O)Nc2nc(-c3ccc(Br)cc3)ns2)cc1C | inactive: 119%
72 | CC(=O)c1ccc(NC(=O)c2nc(-c3ccc(C)cc3)n3c2CCCCC3)cc1 | inactive: 63%
73 | Cc1ccccc1OCC(=O)Nc1ccc2nc(SCc3ccccc3)sc2c1 | inactive: 91%
74 | O=C(O)c1ccc(NC(=S)N2CCCCC2)cc1 | inactive: 107%
75 | COc1ccc(OCC(=O)NC2CC(=O)N(c3ccc4c(c3)OCCO4)C2)cc1 (centres undefined) | inactive: 80%
76 | COc1ccc(-c2ccc(NS(=O)(=O)c3cccc(C)c3)cc2)nn1 | inactive: 70%
77 | COC(=O)C(C)n1cnc2sc3c(c2c1=O)CCCC3 (centres undefined) | inactive: 102%
78 | COc1ccc(CCNC(=O)C2CCN(c3nc4ccccc4nc3C(F)(F)F)CC2)c(OC)c1 | inactive: 65%
79 | Cc1ccc(C)c(CN2C(=O)C3(c4ccccc42)N(c2ccc(Cl)cc2)C(=O)CS3(=O)=O)c1 (centres undefined) | inactive: 71%
80 | CCc1ccc(NS(=O)(=O)c2c(C)nc3sc(CC)nn3c2=O)cc1 | inactive: 70%
81 | COc1ccc(CCNc2nc3c(-c4cccc(F)c4)nnn3c3ccccc23)cc1OC | inactive: 95%
82 | Cc1cccc(NC(=O)CSc2nc(-c3ccccc3Cl)nc3c2Cc2c(CO)cnc(C)c2O3)c1C | inactive: 109%
83 | CC1CCN(c2nc3c(S(=O)(=O)c4ccc(Cl)cc4)nnn3c3ccsc23)CC1 | inactive: 113%
84 | COc1ccc(-c2cc(C)no2)cc1S(=O)(=O)N1CCN(c2ccccc2F)CC1 | inactive: 135%
85 | CC(=O)N1c2ccccc2CC1C(=O)NCc1cccc(Cl)c1 (centres undefined) | inactive: 72%
86 | CCOc1cccc(C2CC(=O)Nc3cc4c(cc32)OCCO4)c1 (centres undefined) | inactive: 77%
87 | CN1C(=O)C(Cc2ccccc2)NC1=S (centres undefined) | inactive: 112%
88 | CCc1ccccc1NC(=O)c1ccc(CN2C(=O)CCn3nc(C)cc32)cc1 | inactive: 92%
89 | COCCNC(=O)C1CCN(c2nc3ccccc3nc2C(F)(F)F)CC1 | inactive: 79%
